The campaign covered roughly 110,000 compounds. About 230 (0.21%) showed an effect of 50% or more. The list shows a part of the results.
Each compound was assayed against DPAP1 (Plasmodium falciparum, UniProt Q8IIJ9) (assay: primary screen, percent inhibition; read by cleavage of a fluorogenic dipeptide substrate; higher = more effect of the substance).
Parameters: species or system P. falciparum D10 trophozoite lysates; single well
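Note: 30 min substrate incubation versus DMSO and 10 µM JCP410 controls.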

Chain of DPAP1 (Q8IIJ9 whole entry, looked up): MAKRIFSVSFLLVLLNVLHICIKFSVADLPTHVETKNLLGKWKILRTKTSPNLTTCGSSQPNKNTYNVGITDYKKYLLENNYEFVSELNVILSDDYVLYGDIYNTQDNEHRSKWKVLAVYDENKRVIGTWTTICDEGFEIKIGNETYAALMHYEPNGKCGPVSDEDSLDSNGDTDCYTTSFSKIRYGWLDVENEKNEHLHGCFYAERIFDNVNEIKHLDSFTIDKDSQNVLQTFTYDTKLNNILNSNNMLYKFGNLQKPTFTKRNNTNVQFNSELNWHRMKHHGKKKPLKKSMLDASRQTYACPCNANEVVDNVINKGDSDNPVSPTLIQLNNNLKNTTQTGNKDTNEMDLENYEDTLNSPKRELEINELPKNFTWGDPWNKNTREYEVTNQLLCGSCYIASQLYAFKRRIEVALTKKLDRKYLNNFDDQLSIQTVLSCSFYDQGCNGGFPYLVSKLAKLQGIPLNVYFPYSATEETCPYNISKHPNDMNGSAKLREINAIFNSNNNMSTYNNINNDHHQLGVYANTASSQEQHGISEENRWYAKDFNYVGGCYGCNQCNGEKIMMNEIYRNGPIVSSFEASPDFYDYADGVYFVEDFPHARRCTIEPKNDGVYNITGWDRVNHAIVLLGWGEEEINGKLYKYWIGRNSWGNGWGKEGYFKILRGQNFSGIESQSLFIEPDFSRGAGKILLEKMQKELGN

In order of rising “% Inhibition @ 10 uM” value:
1. CCOc1cc2c(cc1/C=C1/NC(=O)N(CC(=O)Nc3cccc(C)c3)C1=O)OCO2  -12.5%
2. CNS(=O)(=O)c1cn(CC(=O)NCc2ccccc2)cc1S(=O)(=O)NC  -11.6%
3. CCOC(=O)c1nn(-c2ccccc2)c2c1CCc1occc1-2  -8.98%
4. O=C(N[C@H](/C=C/S(=O)(=O)c1ccccc1)CCc1ccccc1)C(CSCc1ccccc1)CSCc1ccccc1  -8.82%
5. Cc1ccc(N2CC(C(=O)NCC(C)C)CC2=O)cc1 (stereo not drawn)  -8.58%
6. O=C(Nc1ccc(S(=O)(=O)Nc2nccs2)cc1)Nc1ccc(Cl)c(Cl)c1  -7.09%
7. COc1ccc(NC(=O)c2ccccc2Cl)c(OC)c1  -7.02%
8. CCCOc1ccccc1C1C2=C(O)CC(C)(C)CC2=NC(C)=C1C(=O)OC(C)C (stereo not drawn)  -6.74%
9. CN(C1CCCC1)C1CCN(C(=O)CNC(=O)/C=C/c2ccccc2)CC1  -6.64%
10. O=C(O)C1CCCCC1C(=O)N1CCN(c2ccc([N+](=O)[O-])cc2)CC1 (stereo not drawn)  -6.36%
11. CNS(=O)(=O)c1cn(CC(=O)N(C)Cc2ccccc2)cc1S(=O)(=O)NC  -5.9%
12. O=C(NCc1ccc(Cl)cc1)c1cc2c(s1)CS(=O)(=O)C2  -5.89%
13. Cc1nn(C(C)C(=O)N(C)Cc2ccccc2)c(=O)c2c1sc1ccccc12 (stereo not drawn)  -5.78%
14. CCc1c(C)sc2nc(C)n(-c3ccc(OC)cc3)c(=O)c12  -5.6%
15. COc1ccc(C2C3=C(Nc4ncnn42)c2ccccc2OC3c2cccs2)cc1 (stereo not drawn)  -5.19%
16. Cc1cc(C)n(-c2nnc(C)n2/N=C/c2cc(Br)ccc2OCc2ccccc2)n1  -4.85%
17. CC(C)CC(=O)N1CCN(C2CCN(Cc3ccccc3)CC2)CC1  -4.7%
18. COc1cc(C2CC3=Nc4ccccc4NC(c4ccncc4)C3=C(O)C2)cc(OC)c1OC (stereo not drawn)  -4.6%
19. Cc1ccc(NC(=O)C(Cc2ccccc2)N2C(=O)C3C4C=CC(C4)C3C2=O)cc1C (stereo not drawn)  -4.56%
20. O=C1c2ccccc2C(=O)N1CCCn1nnc2sc3c(c2c1=O)CCCC3  -4.54%
21. CC(C)Cc1csc(NC(=O)c2ccc(Br)cc2)c1C(=O)O  -4.43%
22. COCCCNC(=O)C1CCCN(S(=O)(=O)N2CCC3(CC2)OCCO3)C1 (stereo not drawn)  -4.37%
23. Cc1nc2c(C)cccc2c2c1CC(C)O2 (stereo not drawn)  -4.35%
24. O=C(Nc1cccc(Cl)c1)Nc1ccccc1C(F)(F)F  -4.01%
25. C[C@H](CC(NC(=O)c1ccc(-c2ccc(C(C)(C)C)cc2)cc1)C(=O)NCC#N)c1ccccc1 (stereo partly drawn)  -3.48%
26. CCOC(=O)c1c(C)c(-c2ccccc2)n(CC(=O)NCc2ccc3c(c2)OCO3)c1C  -3.44%
27. CCOc1ccc(S(=O)(=O)NCc2ccccc2Cl)cc1C(N)=O  -3.34%
28. CC(NC(=O)c1cc(-c2ccccc2)c(N2CCOCC2)s1)c1ccccc1 (stereo not drawn)  -3.34%
29. CCOC(=O)N1CCC(NC(=O)CCc2c(C)nc3c(c2C)c(=O)n(C)c(=O)n3C)CC1  -3.33%
30. O=S(=O)(c1cc(Cl)ccc1Cl)N1CCN(c2cccc(Cl)c2)CC1  -3.04%
31. Cc1onc(-c2ccccc2Cl)c1C(=O)Nc1ccc(Cl)c(Cl)c1  -2.91%
32. O=C(O)c1ccccc1C(=O)Nc1cccc(O)c1  -2.62%
33. Cn1c(=O)c2sccc2n2c(CCCC(=O)N3CCN(Cc4ccc5c(c4)OCO5)CC3)nnc12  -2.44%
34. CCCCC(=O)Nc1nc(-c2ccc(S(=O)(=O)N3CCCC3)cc2)cs1  -1.84%
35. CCOC(=O)N1CCC(NC2CCCc3ccccc32)CC1 (stereo not drawn)  -1.82%
36. Cc1ccc(-c2n[nH]c3c2C(c2ccc(C(C)C)cc2)NC3=O)cc1 (stereo not drawn)  -1.76%
37. CCOC(=O)N1CCC(NC(=O)C(CC(C)C)NC(=O)C2CCC(C)CC2)CC1 (stereo not drawn)  -1.73%
38. COc1ccc(C)cc1-n1nnc(-c2nc(-c3cccs3)no2)c1N  -1.59%
39. CCN(CC)CCN(C)C1CCCC(C)C1 (stereo not drawn)  -1.56%
40. COc1cc(C(=O)Nc2ccccc2C)cc(OC)c1OC  -1.52%
41. O=c1oc2c(F)cc(F)cc2cc1S(=O)(=O)c1ccccc1  -1.3%
42. O=C(NCc1cccnc1)c1cc(-c2ccc3c(c2)OCO3)on1  -1.21%
43. Cc1nn(-c2ccccc2)c2c1C(c1ccc3c(c1)OCO3)C(C#N)=C(N)O2 (stereo not drawn)  -0.902%
44. Cc1ccc(NC(=O)CN2c3cccc4cccc(c34)S2(=O)=O)cc1Cl  -0.891%
45. Cc1ccc(C2=N/C(=C\c3ccc(C)o3)C(=O)O2)cc1  -0.617%
46. Cc1c(/C=C/C(=O)c2ccccc2O)cnn1C  -0.603%
47. COc1cccc(CNCCO)c1OCc1ccccc1  -0.519%
48. O=S(=O)(c1ccc(F)cc1)N1CCc2ccccc21  -0.351%
49. NS(=O)(=O)c1ccc(CCNC(=O)CNC(=O)C2CCCCC2)cc1  -0.228%
50. CCOC(=O)c1cnn2c1NC(c1ccccc1)CC2C(F)F (stereo not drawn)  -0.186%
51. CC(C)c1ccc(NC(=O)Nc2ccccc2)cc1  -0.127%
52. CC(=O)c1ccc(N2CCN(C3CCC(C)C3)CC2)cc1 (stereo not drawn)  0.0792%
53. CCCCSCC(O)CN1CCOCC1 (stereo not drawn)  0.132%
54. Cc1nn(-c2ccccc2)c(-n2cccc2)c1C(=O)NC(C)c1ccc2c(c1)OCCO2 (stereo not drawn)  0.137%
55. C=CCOc1ccc(CNCc2cccs2)cc1OC  0.163%
56. CCc1ccc(OCCSc2nc(-c3cccs3)nc3cc(=O)[nH]n23)cc1  0.234%
57. CCOc1cc(C2C(C(=O)OC)=CN(CCOC)C=C2C(=O)OC)ccc1O  0.408%
58. O=C1CC(N2CCc3ccccc3C2)C(=O)N1c1ccccc1Cl (stereo not drawn)  0.528%
59. Cc1ccccc1NC(=O)c1cccnc1  0.605%
60. Cn1c(-c2ccccc2)cnc1NCc1c(F)cccc1Cl  0.627%
61. COc1ccc(-c2cc(C(=O)Nc3cc(C)n(Cc4ccc(Cl)cc4)n3)no2)cc1  0.723%
62. O=C(CN1C(=O)S/C(=C/c2ccccc2Cl)C1=O)N1CCOCC1  0.793%
63. Cc1ccc(NC(=O)COc2cc(Cl)ccc2Cl)cc1  0.873%
64. c1ccc(OCCCn2ccnc2)cc1  1.04%
65. CC(C)c1ccc(S(=O)(=O)Nc2ccc3oc(=O)sc3c2)cc1  1.13%
66. Cc1ccc(C)n1CCN1CCNCC1  1.25%
67. CCCN1C(=O)c2cc(C(=O)NCCc3cccc(C)c3)ccc2C1O (stereo not drawn)  1.38%
68. Cc1ccc(Cn2c(-c3cccs3)noc2=O)cc1  1.39%
69. Cc1ccc(-c2csc(Nc3ccc(F)cc3)n2)cc1  1.41%
70. O=C(C1C2CCCCC21)N(CCN(Cc1ccccc1)C(=O)C1C2CCCCC21)Cc1ccccc1 (stereo not drawn)  1.5%
71. CCN1CCC(NCCN2CCCCC2)CC1  1.57%
72. CCc1c(C)nc2c(-c3ccccc3OC)c(C)nn2c1O  1.62%
73. CCc1n[nH]c(SCc2cccc(CSc3n[nH]c(CC)n3)c2)n1  1.63%
74. Cc1oc2ccc(OC(C)C(=O)O)cc2c1C(=O)OC(C)C (stereo not drawn)  1.67%
75. CCc1ccc(CNC(=O)Cn2nc(C)n3c(cc4cc(F)ccc43)c2=O)cc1  1.68%
76. CCOc1ccc2nc(N3CCC(C(=O)NC(C)c4ccccc4)CC3)sc2c1 (stereo not drawn)  1.8%
77. OCCN1CCN(Cc2cccc(Cl)c2Cl)CC1  2.22%
78. O=C(NCCc1ccc(Cl)cc1)c1ccc(CN2CC(=O)N3CCCCC3C2=O)cc1 (stereo not drawn)  2.22%
79. CCOC(=O)c1c(C)[nH]c(C)c1S(=O)(=O)NC(C)(C)C  2.26%
80. Cc1nn(CCC#N)c(C)c1Br  2.38%
81. CCN1CCN(C2CC(=O)N(c3ccc(OC(F)(F)Cl)cc3)C2=O)CC1 (stereo not drawn)  2.49%
82. Cc1ccc(Cn2c(C(=O)O)cc3sccc32)cc1  2.9%
83. C/C(=C\c1ccccc1)CN1CCN(C)CC1  2.91%
84. Cc1ccc2nc(Cl)c3cc(C(=O)N4CCN(c5ccccn5)CC4)sc3c2c1  3.2%
85. Cc1ccc(NC(=O)c2sc(Cl)nc2C)c(C)c1  3.24%
86. COc1ccc2c(Cl)c(C(=O)N3CCCCC3)sc2c1Cl  3.42%
87. CC(=O)Nc1cccc(/N=C/c2c(C)nn(-c3ccc(C)cc3)c2O)c1  3.45%
88. Cc1ccc(OCC(=O)Nc2ccc(S(=O)(=O)N3CCOCC3)cc2)c(Br)c1  3.5%
89. N#Cc1cc2c(nc1SCC(=O)Nc1nccs1)CCC2  3.72%
90. CCN(Cc1ccccc1)C(=O)c1cc(-c2ccc(Cl)cc2)[nH]n1  3.8%
91. O=C1N/C(=C/c2cc(Br)ccc2O)C(=O)N1c1cccc(Cl)c1  3.81%
92. Cc1c(Cc2ccccc2)c(O)n2c(nc3ccccc32)c1C#N  4%
93. Cc1cccc(C)c1NC(=O)Cc1cccs1  4.12%
94. COC(=O)c1ccc(-n2nnc(-c3nsc(NC(=O)c4ccccc4)n3)c2C)cc1  4.23%
95. COCc1cc(C)nc2sc3c(-c4ccccc4)[nH]nc3c12  4.31%
96. CCn1c(C(=O)O)c(CNCc2ccccc2Cl)c2ccc(C)cc21  4.41%
97. Clc1cccc(-n2nnnc2C2(N3CCOCC3)CCCCC2)c1  4.42%
98. COc1cc2sc(C(=O)Nc3cccc(OC)c3OC)c(Cl)c2cc1OC  5.54%
99. CCOC(=O)N1CCN(S(=O)(=O)c2ccc(OC)c(C)c2)CC1  6.65%
100. CCn1cc(CCCC(=O)NC2CCN(Cc3ccccc3)CC2)c2ccccc21  10%
101. COc1ccc(OCC(=O)N2CCN(c3ccccc3)CC2)cc1  10.4%
102. CCCCN(CCNC(=O)c1c2c(nc3ccccc13)C(=O)N(C1CCCCC1)C2)Cc1ccco1  10.9%

Reference: article PMC6919601, “Identification of Plasmodium dipeptidyl aminopeptidase allosteric inhibitors by high throughput screening” (PLoS ONE, 2019)
